# Results as given in PMC4336329 (PLoS ONE, 2015).
# Screen size: about 310,000 compounds; about 2,200 (0.71%) showed an effect of 50% or more. Effects have a minus sign here. Some of the results follow.
# Molecular target: human ether-à-go-go-related gene (hERG) potassium channel (human, UniProt Q12809)
# Test: primary screen, population patch clamp on CHO cells stably expressing hERG
# Chain of human ether-à-go-go-related gene (hERG) potassium channel (Q12809 whole entry, looked up): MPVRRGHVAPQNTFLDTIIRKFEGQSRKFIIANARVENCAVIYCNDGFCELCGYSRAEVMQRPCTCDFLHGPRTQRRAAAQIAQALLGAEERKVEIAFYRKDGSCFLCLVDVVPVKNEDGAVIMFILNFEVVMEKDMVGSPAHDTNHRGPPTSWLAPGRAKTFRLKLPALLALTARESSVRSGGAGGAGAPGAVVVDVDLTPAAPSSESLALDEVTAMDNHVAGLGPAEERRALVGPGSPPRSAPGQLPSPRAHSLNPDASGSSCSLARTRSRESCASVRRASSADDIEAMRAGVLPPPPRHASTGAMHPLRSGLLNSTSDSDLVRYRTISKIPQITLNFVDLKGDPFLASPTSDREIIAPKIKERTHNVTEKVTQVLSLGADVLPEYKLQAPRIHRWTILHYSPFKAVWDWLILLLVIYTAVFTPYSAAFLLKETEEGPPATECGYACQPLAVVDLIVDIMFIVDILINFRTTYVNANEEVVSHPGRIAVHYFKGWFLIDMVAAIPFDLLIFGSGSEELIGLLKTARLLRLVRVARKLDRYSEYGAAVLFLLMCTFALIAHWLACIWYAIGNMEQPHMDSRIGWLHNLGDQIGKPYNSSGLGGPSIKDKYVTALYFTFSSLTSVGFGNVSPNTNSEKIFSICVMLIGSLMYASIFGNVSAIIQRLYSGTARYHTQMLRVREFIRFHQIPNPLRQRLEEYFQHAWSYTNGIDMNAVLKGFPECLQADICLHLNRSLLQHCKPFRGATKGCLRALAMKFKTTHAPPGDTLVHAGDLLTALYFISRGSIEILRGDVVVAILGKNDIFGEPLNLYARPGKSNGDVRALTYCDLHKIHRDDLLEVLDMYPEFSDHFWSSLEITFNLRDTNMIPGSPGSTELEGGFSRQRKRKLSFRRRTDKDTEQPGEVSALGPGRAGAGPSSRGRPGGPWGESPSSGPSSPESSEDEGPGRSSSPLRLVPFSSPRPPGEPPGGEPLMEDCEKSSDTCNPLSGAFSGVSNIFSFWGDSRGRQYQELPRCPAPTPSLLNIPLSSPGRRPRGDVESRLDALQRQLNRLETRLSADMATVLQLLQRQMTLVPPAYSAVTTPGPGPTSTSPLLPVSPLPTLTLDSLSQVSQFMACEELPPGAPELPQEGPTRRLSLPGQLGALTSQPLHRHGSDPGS
row,SMILES,"hERG current change (%, negative = inhibition) at 1uM"
1,CCCn1c2c(c(O)c(C(=O)NC)c1=O)CCCC2,17.6%
2,CCn1c(Cc2ccccc2)nnc1SCC(=O)Nc1ccccc1N1CCOCC1,-1.98%
3,Cc1c(Br)cnn1C(C)C(=O)N1CCN(c2ccc(F)cc2)CC1 (centres unmarked),-9.4%
4,CCOC(=O)c1c(N)n(CCN2CCCCC2)c2nc3ccccc3nc12,1.93%
5,CN(C)C(=O)c1nc2ccc(Cl)cn2c1CNCc1cccc(OC(F)(F)F)c1,9.52%
6,CCC(C)(C)NC(=O)C(OC(=O)c1ccco1)c1ccc(OC)cc1 (centres unmarked),7.84%
7,CC(C)NC(=O)N1CCN(c2ccncc2S(=O)(=O)N2CCCCC2)CC1,15.3%
8,COc1ccc2c(c1)C(=O)[C@H](O)[C@@H](c1ccc(OC)c(Br)c1)O2,12.3%
9,Cc1ccccc1/C=N/Nc1nc2ccccc2[nH]1,10%
10,CN1CCN(CCCC(=O)c2ccc(C3CCCC3)cc2)CC1.Cl.O,-6.29%
11,CCN(CC)c1ccc(S(=O)(=O)N2CCCCC2)cc1NC(=O)C1CCC1,3.99%
12,Cc1cccc(NC(=O)Nc2cccc(Oc3c(F)c(F)c(F)c(F)c3F)c2)c1,11.1%
13,CCCC(=O)NCCc1ccc(S(N)(=O)=O)cc1,10.7%
14,O=C(Cc1ccc(Cl)cc1)Nc1cccc(-c2nnc(-c3ccco3)o2)c1,4.98%
15,c1cncc(CSc2nnc3ccc(-c4ccncc4)nn23)c1,-14.9%
16,COC(=O)CCC(=O)N1CCCC(CNS(=O)(=O)c2ccc(OC)cc2)C1 (centres unmarked),8.55%
17,Cc1c(C(=O)N2CCN(c3ccc(F)cc3)CC2)oc2c1C(=O)CCC2,-1.98%
18,COc1ccccc1NC(=O)CCC(=O)OC(C)C(=O)c1ccccc1 (centres unmarked),14.2%
19,COc1cccc(NS(=O)(=O)c2ccc3c(c2)NC(=O)C(C)S3)c1 (centres unmarked),-2.68%
20,CCC(=O)Oc1cccc(C(=O)Nc2ccc(-c3nnc(-c4ccco4)o3)cc2)c1,7.4%
21,CC(C)(C)c1ccc(/C=C/C(=O)Nc2ccncc2)cc1,8.86%
22,COc1ccc(CCN(C)C(=O)c2cc(-c3ccccc3)nc3ccc(C)cc23)cc1OC,-2.82%
23,CCN1CCCc2cc(CN(CCN3CCOCC3)C(=S)Nc3ccc(OC)c(Cl)c3)ccc21,10.1%

row,SMILES,"hERG current change (%, negative = inhibition) at 1uM"
1,COc1cc2ccccc2cc1C(=O)NC(=S)Nc1cccc(C(=O)O)c1,13.5%
2,CCCn1c(SCC(=O)Nc2nc3ccccc3s2)nc2c1c(=O)n(C)c(=O)n2C,6.47%
3,NC(N)=Nc1ccc(N=C(N)N)cc1,13.7%
4,CC(C)Cc1nnc(NC(=O)c2cc(-c3ccncc3)nc3ccccc23)s1,5.36%
5,CSc1c(CC(=O)NCCO)n(C)c2ccccc12,16.9%
6,Cc1c(Cl)c([N+](=O)[O-])nn1CCCC(=O)Nc1sc2c(c1C#N)CCC2,-4.51%
7,COc1cc(SC)ccc1C(=O)Nc1ccc(C)cc1,15.4%
8,C=CC[N+]1(CC#Cc2ccccc2)CCCC1.[Br-],16.6%
9,CC(Oc1ccc2ccc(=O)oc2c1)C(=O)NCCCn1ccnc1 (centres unmarked),32.6%
10,COc1cccc(-c2c(C(=O)N/N=C(\C)c3cccnc3)nnn2-c2nonc2N)c1,24.9%
11,COc1ccccc1N(C)S(=O)(=O)c1ccc(Cl)c(C(=O)Nc2cccc(C)n2)c1,8.95%
12,O=C(Oc1ccc2c(=O)c(Oc3ccc4ccccc4c3)coc2c1)c1cncc(Br)c1,6.78%
13,CCCCNC(=O)c1cn(C)c2ccc(S(=O)(=O)N3CC(C)CC(C)C3)cc2c1=O (centres unmarked),-5.81%
14,CCCCn1c(N)c(N(CCOC)C(=O)c2cc(-c3ccco3)nc3ccccc23)c(=O)[nH]c1=O,4.86%
15,Cc1cc(NC(=O)CSc2nnnn2-c2ccc(C)c(C)c2)no1,9.56%
16,COc1ccc(NC(=O)C2CCN(S(=O)(=O)c3ccc4[nH]c(=O)oc4c3)CC2)c(OC)c1,23.2%
17,CC(=O)NS(=O)(=O)c1ccc(N=NN2CCCCCC2)cc1,16.1%
18,Clc1ccccc1OCCCn1ccnc1,14.6%
19,NC(=O)c1ccc(-c2noc(-c3ccccc3F)n2)cc1,7.87%
20,O=C(CCSc1ccccc1)NC1CCCCCC1,6.43%
21,CC(Sc1nc2sc3c(c2c(=O)n1-c1ccccc1)CCCC3)C(=O)O (centres unmarked),6.44%
22,CCC(C)(C)NC(=O)CCCSc1nc2ccccc2[nH]1,7.75%
23,O=C(COC(=O)CNC(=O)c1sc2ccccc2c1Cl)NC1CCS(=O)(=O)C1 (centres unmarked),5.29%

row,SMILES,"hERG current change (%, negative = inhibition) at 1uM"
1,CCOc1ccc(Cn2nnc(C(=O)NCc3ccccc3)c2N)cc1,13.2%
2,CCn1c(C)c(C)c2cc(C(=O)N3CCN(c4cccc(C)c4C)CC3)ccc21,12.9%
3,Cc1ccc(OCC(=O)Nc2ccc3c(c2)nc(CCN2CCOCC2)n3C)cc1,-19.8%
4,CC1CCCCC1NC(=O)COC(=O)c1ccc2c(c1)OCCO2 (centres unmarked),4.39%
5,COc1ccccc1NC(=O)CN1CCN(c2ccccn2)CC1,5.94%
6,Cc1ccc(Nc2nc(-c3ccncc3)nc3ccccc23)cc1,5.97%
7,Cc1ccccc1Nc1nc(N)nc(CN2CCN(Cc3ccc4c(c3)OCO4)CC2)n1,-45.4%
8,CS(=O)(=O)c1ccc2nc(NC(=O)Nc3ccc(Cl)c(Cl)c3)sc2c1,11.3%
9,CCOc1ccc(S(=O)(=O)NCCC(=O)N2CCN(c3ccc(OC)cc3)CC2)cc1,-0.134%
10,COc1ccccc1CCC(=O)N(Cc1ccccc1)c1c(N)n(Cc2ccccc2)c(=O)[nH]c1=O,15.6%
11,CCN(CC)C(=O)CN1C(=O)NC2(CCc3ccccc3C2)C1=O (centres unmarked),17.5%
12,COc1ccc(NC(=O)c2cn(-c3ccccc3)nc2-c2cc3ccccc3o2)cc1,8.34%
13,CC(C)(C)C1CCC(OCC(O)CN2CCCC2)CC1.Cl (centres unmarked),3.85%
14,COc1cc2c(cc1OC)C(C)N(C(=O)c1cc3n(n1)C(C(F)(F)F)CC(c1ccco1)N3)CC2 (centres unmarked),8.83%
15,CCOc1ncccc1C(=O)OCC(=O)N1CC(=O)Nc2ccccc21,8.47%
16,CC1CC(O)(CC(O)(c2ccccc2)c2ccccc2)C(C)CN1C (centres unmarked),11.2%
17,C/C(=N/NS(=O)(=O)c1ccc(Cl)cc1)c1cccc(NC(=O)c2ccc(Cl)cc2Cl)c1,11.1%
18,O=S(=O)(c1ccccc1)N1CCN(Cc2ccccc2)CC1,16.9%
19,COc1cccc(/C=C2\SC(=S)N(CCC(=O)N3CCCCC3)C2=O)c1,16%
20,COc1ccc(OC)c(N(CC(=O)NC2CCCCCC2)S(=O)(=O)c2ccc(C)cc2)c1,12%
21,CC(=NC1CCCCC1)C1=C(O)c2ccccc2C1=O,3.46%
22,C#CC1(NC(=O)NC(C)(C)C)CCCCC1,17.3%
23,O=C(O)c1ccc(NC(=O)c2cn(-c3ccccc3)nc2-c2cccc(Cl)c2)cc1,15%

row,SMILES,"hERG current change (%, negative = inhibition) at 1uM"
1,CNCC(O)c1ccc(O)c(O)c1.Cl (centres unmarked),16.6%
2,COC(=O)C1CCN(C(=O)COc2cc3sc(C)nc3c3sccc23)CC1,6.44%
3,O=C(CCn1[nH]c(=O)c2ccccc2c1=O)OC1CCCCC1,16.1%
4,Cc1nc2c(C(=O)NCc3ccc4c(c3)OCO4)c[nH]n2c(=O)c1Cc1ccccc1F,2.53%
5,Cn1c(=O)oc2cc(S(=O)(=O)N3CCN(c4ccccn4)CC3)ccc21,10.8%
6,CC(=O)c1ccc(NC(=O)c2ccc3nc(C)sc3c2)cc1,12.9%
7,CCOC(=O)N1CCN(C(=O)COC(=O)CN(C)S(=O)(=O)c2ccc(NC(C)=O)cc2)CC1,8.03%
8,O=C(O)CCN1c2ccccc2Sc2ccccc21,13.5%
9,CC(C)CC(COCc1ccc(C(F)(F)F)cc1)N1CCN(C(=O)c2ccc(C(F)(F)F)cc2)CCC1=O (centres unmarked),3.51%
10,O=C(/C=C/c1ccco1)Nc1ccc2c(c1)OCO2,12.6%
11,CN(C(=O)CSc1nnnn1-c1ccccc1)C1CCS(=O)(=O)C1 (centres unmarked),9.7%
12,O=C(OCC(=O)N1CCOCC1)c1ccc(Cl)nc1,12.3%
13,O=C(Nc1cccs1)Nc1c(F)c(F)cc(F)c1F,10.7%
14,O=C(NCC1CCCO1)c1ccc(Br)o1 (centres unmarked),15.7%
15,COCCCNC(=O)c1cc(C(=O)c2ccccc2Br)c[nH]1,11.5%
16,CCOc1ccc(Cl)cc1/C=N/NC(=O)CNC(=O)c1ccccc1,5.81%
17,COc1ccc(C)cc1NC(=O)CCNC(=O)Cn1ccc2ccccc2c1=O,15.1%
18,O=C(/C=C/c1ccc(OC2CSC2)cc1)c1ccccc1,12.6%
19,O=C(COc1ccccc1Br)NCCC1=CCCCC1,8.65%
20,CCC(CC)c1nnc(NC(=O)CCCN2C(=O)c3ccccc3C2=O)s1,-9.25%
